Results taken from PubChem BioAssay AID686978 (National Center for Advancing Translational Sciences (NCATS), 2013).
Out of some 420,000 compounds screened, about 64,000 (15%) were called active. The inconclusive results got no clear call from the source; some entries with a clear call stand among them for comparison. The call rests on the fitted dose curve; in most records, active means well fitted inhibition curve with a large enough effect; inconclusive means small, poorly fitted or top-dose-only effect; inactive means flat fitted curve, though single readings scatter. No potency is given beside an inconclusive call; the fits are too rough.

Experiment: qHTS for Inhibitors of human tyrosyl-DNA phosphodiesterase 1 (TDP1): qHTS in cells in absence of CPT; further: nearly all actives have a fitted effect of over 55% in size
Conditions: DT40 Tdp1-/- hTDP1 cells, no CPT, ATP luminescence, 48 h; activity change, negative = growth inhibition: at 46.2 µM (top of the series) unless noted
Summary of the method: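 Stably hTDP1-transfected Tdp1-null chicken DT40 cells were treated with library compounds minus camptothecin and grown for at least 48 hr at 37 °C, after which cellular ATP was quantified by luminescence.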
On the % scale 0 is the no-effect control and ±100 the full control effect; potency means the concentration at half of the fitted maximal effect; tags describe the fitted curve by direction and shape.

Row | SMILES | Potency | activity change, negative = growth inhibition
1 | O=C(Nc1cccc(-c2cccc(F)c2)c1)C1CCN(Cc2ccco2)CC1 | inconclusive [inhibitor, single point] | –
2 | Cc1ccc(CNC(=O)COCc2cc(-c3ccc4c(c3)OCO4)on2)cc1 | inconclusive [inhibitor, single point] | –
3 | Cc1ccc(CCNS(=O)(=O)c2cc3c(cc2Cl)NC(=O)CO3)cc1 | inactive | –
4 | CC(=O)Nc1cc(-c2ccc(N3CCN(C)CC3)cc2)cn2c(-c3cccc(C(C)=O)c3)cnc12 | inconclusive [inhibitor, single point] | –
5 | CCOC(=O)C1=C(C)Nc2ccccc2N/C1=N\S(=O)(=O)c1ccccc1 | inconclusive [inhibitor, single point] | –
6 | CCn1ncc(Br)c1C(=O)Nc1ccc(-c2ccno2)cc1 | inactive | –
7 | CCOc1ccc2cc(-c3nnc(Nc4ccccc4F)s3)c(=O)oc2c1 | inconclusive [inhibitor, full curve] | –
8 | Cn1cnc(C(=O)N2CCc3ccccc3C2)c1C(=O)N1CCc2ccccc2C1 | inconclusive [inhibitor, single point] | –
9 | Cc1ccc(Cl)cc1N1CCN(C(=S)NCCc2ccccc2)CC1 | inconclusive [inhibitor, single point] | –
10 | CCOc1ccc(S(=O)(=O)c2cn(Cc3ccc(C)cc3)c3ccc(OC)cc3c2=O)cc1 | inconclusive [inhibitor, full curve] | –
11 | CCC(=O)NCCc1nc2ccccc2n1CC | inactive | –
12 | Cn1c(=O)n(Cc2ccccc2)c(=O)c2c1nc(NCC1CCCO1)n2Cc1ccccc1 (stereo not given) | inconclusive [inhibitor, single point] | –
13 | CCCCC(=O)Nc1cccc(NC(=O)c2ccc(Br)o2)c1 | – | inconclusive: -30.6% [inhibitor]
14 | Cc1ccc(-n2ncc3c(N4CCC(C)CC4)ncnc32)cc1C | inconclusive [inhibitor, single point] | –
15 | O=c1cc(N2CCCCC2)c(-c2ccccc2)nn1Cc1ccc(Cl)cc1Cl | active: 18.4 µM | –
16 | CCCc1nn(C)c(C(=O)Nc2cccc3ccccc23)c1Cl | inconclusive [inhibitor, single point] | –
17 | CC(C)(C)c1ccc(-c2noc(-c3ccno3)n2)cc1 | inconclusive [inhibitor, partial curve] | –
18 | CCOC(=O)c1c(NC(=O)C2c3ccccc3Oc3ccccc32)sc(C(C)=O)c1C | inconclusive [inhibitor, single point] | –
19 | O=C(NCc1cc(Cl)cc(Cl)c1)c1ccc2nc([C@H]3C[C@H](O)[C@@H](CO)O3)[nH]c2c1 | inactive | –
20 | CC1=CC(=NOS(=O)(=O)c2ccc(C)cc2)CC(C)(C)C1 | inconclusive [inhibitor, partial curve] | –
21 | COc1ccc(C(O)c2ncc(-c3ccccc3C)[nH]2)cc1 (stereo not given) | inactive | –
22 | CN1CCN(C(=O)c2ccc3c(c2)N(Cc2ccccc2)CCS3)CC1 | inconclusive [inhibitor, single point] | –
23 | O=C(Nc1ccccn1)c1ccc(Br)c(S(=O)(=O)N2CCCCC2)c1 | inconclusive [inhibitor, partial curve] | –

Row | SMILES | Potency | activity change, negative = growth inhibition
24 | COc1ccc(Nc2nccc(-c3ccc([N+](=O)[O-])cc3)n2)cc1 | inconclusive [inhibitor, single point] | –
25 | COc1ccc(C(=O)/C=C/C(=O)N(Cc2ccc3c(c2)OCO3)C(C(=O)NC2CCCCC2)c2ccncc2)c(O)c1 (stereo not given) | active: 23.1 µM | –
26 | Cc1ccc(NC(=O)c2sc(N)nc2-c2ccccc2)cc1C | inconclusive [inhibitor, partial curve] | –
27 | COc1ccc(C2=Nc3ccccc3N(C(=O)Cc3cc(OC)cc(OC)c3)C2C(=O)NC(C)(C)C)cc1 (stereo not given) | inactive | –
28 | CCOc1ncccc1C(=O)NNC(=O)c1ccccc1-n1cccc1 | inactive | –
29 | C=CCn1c(=O)c2c(nc3n2CCN3c2cccc(Cl)c2C)n(C)c1=O | inconclusive [inhibitor, single point] | –
30 | COCCNC(=O)C1C(=O)Nc2ccccc2C(=O)N1C1CCCC1 (stereo not given) | inactive | –
31 | O=C(c1cccc(Cl)c1)N1CCC2CC1c1cc(-c3ccc(F)cc3)ccc12 (stereo not given) | inconclusive [inhibitor, single point] | –
32 | CCc1ccc(OCCOC(=O)Nc2ccccc2)cc1 | inconclusive [inhibitor, full curve, poor fit] | –
33 | CNC(=S)N1CCC(NC(=O)C(Cc2ccc(OC)cc2)NC(C)=O)CC1 (stereo not given) | inactive | –
34 | Cc1cc(C)n(-c2nc3ccccc3nc2Nc2ccc3c(c2)OCO3)n1 | inactive | –
35 | NC(=O)COc1ccc(C(=O)/C=C2/C(=O)Nc3ccccc32)cc1 | active: 2.91 µM | –
36 | CCOC(=O)c1c(C)nn(-c2ccc(NC(=O)c3c(C)noc3C)cc2)c1C | inconclusive [inhibitor, single point] | –
37 | C(=Nc1ccc(N2CCOCC2)cc1)c1c[nH]c2ccccc12 | inconclusive [inhibitor, partial curve, poor fit] | –
38 | Cc1nn(CC(=O)NCCN2CCCCC2C)c(=O)c2cc(-c3ccccc3)nn12 (stereo not given) | inactive | –
39 | CCc1ccc(-c2csc3ncn(CC)c(=O)c23)cc1 | inactive | –
40 | CC(C)(C)c1ccc(C(O)c2ncc(-c3ccccc3F)[nH]2)cc1 (stereo not given) | inconclusive [inhibitor, single point] | –
41 | Nc1ccc(Oc2ccc3nc(-c4ccccc4)c(-c4ccccc4)nc3c2)cc1 | active: 20.6 µM | –
42 | CC(=O)c1c(C)[nH]c(C(=O)COC(=O)C2(C)CC2(Cl)Cl)c1C (stereo not given) | active: 20.6 µM | –
43 | O=C(CCc1ccccc1)Nc1ccc2c(c1)OCCO2 | inconclusive [inhibitor, partial curve, poor fit] | –
44 | CCCOc1ccc(C2C(C(=O)c3cc4ccccc4o3)=C(O)C(=O)N2c2cc(C)on2)cc1OC (stereo not given) | inconclusive [inhibitor, single point] | –
45 | COc1ccc(S(=O)(=O)NC2CC(C)(C)NC(C)(C)C2)c2ccccc12 | – | inconclusive: -33.2% [inhibitor]
